{"source": "paper PMC4336329", "about": "(PLoS ONE, 2015)", "note": "Screen size: about 310,000 compounds; about 2,200 (0.71%) showed an effect of 50% or more. Effects have a minus sign here. The list shows a part of the results."}
{"target": "human ether-à-go-go-related gene (hERG) potassium channel (human, UniProt Q12809)", "sequence (Q12809 whole entry, looked up)": "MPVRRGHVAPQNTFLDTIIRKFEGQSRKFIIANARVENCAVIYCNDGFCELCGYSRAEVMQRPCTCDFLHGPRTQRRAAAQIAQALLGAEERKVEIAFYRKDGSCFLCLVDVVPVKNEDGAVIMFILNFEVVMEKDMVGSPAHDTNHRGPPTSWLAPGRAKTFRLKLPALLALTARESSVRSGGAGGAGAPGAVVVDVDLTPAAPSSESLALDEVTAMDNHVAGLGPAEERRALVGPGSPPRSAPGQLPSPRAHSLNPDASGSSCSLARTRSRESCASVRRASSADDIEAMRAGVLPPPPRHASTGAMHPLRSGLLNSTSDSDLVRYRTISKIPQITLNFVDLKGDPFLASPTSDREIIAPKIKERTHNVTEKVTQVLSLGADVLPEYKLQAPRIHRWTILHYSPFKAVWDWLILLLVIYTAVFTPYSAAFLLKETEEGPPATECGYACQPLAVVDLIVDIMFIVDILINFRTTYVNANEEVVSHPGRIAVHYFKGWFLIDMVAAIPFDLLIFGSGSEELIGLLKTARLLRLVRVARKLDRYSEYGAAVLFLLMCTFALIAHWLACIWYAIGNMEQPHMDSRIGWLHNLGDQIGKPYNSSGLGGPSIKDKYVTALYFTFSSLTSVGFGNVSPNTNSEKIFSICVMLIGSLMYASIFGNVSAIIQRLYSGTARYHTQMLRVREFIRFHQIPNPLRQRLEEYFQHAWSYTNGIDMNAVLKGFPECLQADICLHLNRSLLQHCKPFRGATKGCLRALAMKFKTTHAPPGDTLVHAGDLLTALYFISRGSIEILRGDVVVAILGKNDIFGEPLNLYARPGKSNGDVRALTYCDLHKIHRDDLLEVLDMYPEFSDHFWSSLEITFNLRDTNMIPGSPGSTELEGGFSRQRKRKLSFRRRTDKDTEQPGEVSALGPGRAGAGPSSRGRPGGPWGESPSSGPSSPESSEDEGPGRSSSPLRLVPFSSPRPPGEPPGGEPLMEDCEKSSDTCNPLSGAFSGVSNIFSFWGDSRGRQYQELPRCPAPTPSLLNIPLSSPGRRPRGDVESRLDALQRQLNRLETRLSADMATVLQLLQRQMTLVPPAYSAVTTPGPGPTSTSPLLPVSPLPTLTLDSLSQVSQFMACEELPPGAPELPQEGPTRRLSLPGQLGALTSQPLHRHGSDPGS", "experiment": "primary screen, population patch clamp on CHO cells stably expressing hERG", "units": {"hERG current change (%, negative = inhibition) at 1uM": "%"}}
{"smiles": "COc1ccc(Cc2nnc(Nc3ccc(Cl)cc3)[nH]c2=O)cc1", "hERG current change (%, negative = inhibition) at 1uM": 9.71}
{"smiles": "Cc1ccc[n+](CC(=O)Nc2cc(C(F)(F)F)ccc2N2CCOCC2)c1.[Cl-]", "hERG current change (%, negative = inhibition) at 1uM": 10.9}
{"smiles": "CNC(=O)CN(C1CCCCC1)S(=O)(=O)c1ccc(OC)c(Cl)c1", "hERG current change (%, negative = inhibition) at 1uM": 13.1}
{"smiles": "CC(C)(C)C1CCc2onc(C(=O)Nc3ccc(F)cc3F)c2C1", "note": "(stereo not shown)", "hERG current change (%, negative = inhibition) at 1uM": 1.2}
{"smiles": "Cc1c(Br)c([N+](=O)[O-])nn1C(C)C(=O)Nc1nccs1", "note": "(stereo not shown)", "hERG current change (%, negative = inhibition) at 1uM": 12.3}
{"smiles": "O=C(NN1C(=O)c2ccccc2NC1c1ccc([N+](=O)[O-])o1)c1ccccc1", "note": "(stereo not shown)", "hERG current change (%, negative = inhibition) at 1uM": 3.92}
{"smiles": "COc1ccc(NC(=O)CSc2nc3c(c(=O)n2-c2ccccc2)SCC3)c(OC)c1", "hERG current change (%, negative = inhibition) at 1uM": -1.33}
{"smiles": "CC(C)n1c(SCC(=O)Nc2ccc(F)cc2)nnc1C1CC1", "hERG current change (%, negative = inhibition) at 1uM": -2.72}
{"smiles": "CCS(=O)(=O)Nc1ccc(-c2nnc(SCC(=O)c3cccc(OC)c3)o2)cc1", "hERG current change (%, negative = inhibition) at 1uM": 12.7}
{"smiles": "Cc1cccc(NC(=O)c2ccc([N+](=O)[O-])s2)c1C", "hERG current change (%, negative = inhibition) at 1uM": 4.41}
{"smiles": "CCn1cc(CNC(=O)c2ccc(Cl)c([N+](=O)[O-])c2)c(C)n1", "hERG current change (%, negative = inhibition) at 1uM": 10}
{"smiles": "CC(C)c1cccc(C(C)C)c1NC(=O)CCN1C(=O)NC2(CCCC2)C1=O", "hERG current change (%, negative = inhibition) at 1uM": 13}
{"smiles": "Nc1ccccc1-n1c(=O)n(Cc2ccccc2F)c(=O)c2[nH]cnc21", "hERG current change (%, negative = inhibition) at 1uM": 7.56}
{"smiles": "Cc1cccc([C@H](NC(=O)OC(C)(C)C)C(=O)OC(C)(C)C)c1", "hERG current change (%, negative = inhibition) at 1uM": 8.63}
{"smiles": "O=C(NCC(=O)N1CCN(Cc2ccccc2)CC1)c1ccc(Br)cc1", "hERG current change (%, negative = inhibition) at 1uM": -9.27}
{"smiles": "O=C(Nc1ccc(-n2cnnn2)cc1)C1CCCN1C(=O)NC1CCCCC1", "note": "(stereo not shown)", "hERG current change (%, negative = inhibition) at 1uM": -36.5}
{"smiles": "CCOC(=O)C1=C(CCl)NC(=O)NC1c1ccc2c(c1)OCO2", "note": "(stereo not shown)", "hERG current change (%, negative = inhibition) at 1uM": 7.24}
{"smiles": "C=CCn1c(O)c(/C=C/C=Nc2ccccc2)c(=O)[nH]c1=O", "hERG current change (%, negative = inhibition) at 1uM": 22}
{"smiles": "COc1ccc(N2CC(C(=O)Nc3nnc(SCC(=O)c4ccccc4)s3)CC2=O)cc1", "note": "(stereo not shown)", "hERG current change (%, negative = inhibition) at 1uM": 18.5}
{"smiles": "C#CCOCCOCCOCCNc1nc(N2CCOCC2)nc(N2CCN(C(=O)[C@H]([C@@H](C)CC)n3cc([C@@H](N)CO)nn3)CC2)n1.Cl", "hERG current change (%, negative = inhibition) at 1uM": 3.38}
{"smiles": "Cc1ccc(NC(=O)CSc2ncc(S(=O)(=O)c3ccccc3)c(=O)[nH]2)cc1C", "hERG current change (%, negative = inhibition) at 1uM": 7.39}
{"smiles": "C/C(=N\\NC(=O)C1(C)CC1(Br)Br)c1cccc(NC(=O)C(C)(C)C)c1", "note": "(stereo not shown)", "hERG current change (%, negative = inhibition) at 1uM": 4.12}
{"smiles": "CCN(CC)c1nc(-c2ccccn2)nc(-c2ccccc2)c1C#N", "hERG current change (%, negative = inhibition) at 1uM": 3.11}
{"smiles": "CCOC(=O)c1c(C)sc2c1N(C(=O)CN1CCOCC1)c1cc(Cl)ccc1S2", "hERG current change (%, negative = inhibition) at 1uM": 1.5}
{"smiles": "O=C(Cn1c(=O)c2cccn2c2ccccc21)NCCc1ccccc1", "hERG current change (%, negative = inhibition) at 1uM": 10.9}
{"smiles": "COc1ccc(C2=NOC(C(=O)NCc3cccnc3)C2)cc1OC", "note": "(stereo not shown)", "hERG current change (%, negative = inhibition) at 1uM": 14.2}
{"smiles": "COc1cc2ccc3c(CCN(C)C)cc(OC)c(OC)c3c2cc1OC.Cl", "hERG current change (%, negative = inhibition) at 1uM": 11.7}
{"smiles": "COc1ccc(C2/C(=C(\\O)c3cc(C)ccc3C)C(=O)C(=O)N2CCN(C)C)cc1OC", "note": "(stereo not shown)", "hERG current change (%, negative = inhibition) at 1uM": -1.87}
{"smiles": "O=C(CSc1ncnc2nc[nH]c12)c1ccc([N+](=O)[O-])cc1", "hERG current change (%, negative = inhibition) at 1uM": 14.8}
{"smiles": "CCCCn1c(C)c(C(=O)O)c2cc(OC)c3ccccc3c21", "hERG current change (%, negative = inhibition) at 1uM": 12.6}
{"smiles": "C(=N\\c1nc2ccccc2[nH]1)/c1cccs1", "hERG current change (%, negative = inhibition) at 1uM": 2.83}
{"smiles": "Cc1nc(=O)cc(-c2ccccc2)n1-c1ccccc1", "hERG current change (%, negative = inhibition) at 1uM": 13.3}
{"smiles": "COc1cccc(C(=O)Nc2nc(SCc3ccc(Cl)cc3)n[nH]2)c1", "hERG current change (%, negative = inhibition) at 1uM": 12.3}
{"smiles": "O=C(NCC(F)(F)F)Nc1cccnc1", "hERG current change (%, negative = inhibition) at 1uM": 11.6}
{"smiles": "O=C(O)C1(S(=O)(=O)c2ccc(Cl)cc2)CCC1", "hERG current change (%, negative = inhibition) at 1uM": 17.8}
{"smiles": "Cn1ccsc1=NC(=O)c1ccccc1OC(F)F", "hERG current change (%, negative = inhibition) at 1uM": 13.6}
{"smiles": "Cc1cc(C)c2c(N=NN(C)C)[nH]nc2n1", "hERG current change (%, negative = inhibition) at 1uM": -0.958}
{"smiles": "Cc1nnc(SCC(C)C)[nH]c1=O", "hERG current change (%, negative = inhibition) at 1uM": 17.6}
{"smiles": "Cc1ccc(CNC(=O)CCc2c(C)nc3c(c(C)nn3-c3ccc(C)cc3)c2C)cc1", "hERG current change (%, negative = inhibition) at 1uM": 8.69}
{"smiles": "COc1ccc(NC(=O)CSc2nccn2Cc2ccco2)c(OC)c1", "hERG current change (%, negative = inhibition) at 1uM": 15.2}
{"smiles": "CCOC(=O)c1c(NC(=S)Nc2ccc(Cl)cc2)sc2c1CCN(C)C2", "hERG current change (%, negative = inhibition) at 1uM": -57.4}
{"smiles": "NC(=O)c1cc(C(=O)Cc2ccccc2)c[nH]1", "hERG current change (%, negative = inhibition) at 1uM": 11.4}
{"smiles": "O=C(CC1Oc2ccccc2NC1=O)NC1CCCC1", "note": "(stereo not shown)", "hERG current change (%, negative = inhibition) at 1uM": 12.4}
